According to article PMC5892938:
Some of the results follow. At the low end of the ranking the order means little.

biological target: GST-SBP-SLBP (stem-loop binding protein) (UniProt Q14493); test: targeted RNA Bind-n-Seq; details: RBNS binding buffer: 25 mM Tris pH 7.5, 150 mM KCl, 3 mM MgCl2, 0.1% Tween, 0.5 mg/mL BSA, 1 mM DTT; 27 nM protein, 750 pM RNA pool; temperature not stated; high values mean tight binding;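 note: DESeq read counts versus GST-SBP nonspecific binding control pulldown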

Sequence	binding signal (log2 fold change)
GGUCACGUCUCAAUCAACUCAUCUUCCAGGGAAACCCCUGGCUAACUCAACAGCUCGCAGUCAAG	-0.0873
GGUCACGUCUCAAUCAACUCUUCUUCCAGGGAAAACCCUGGCUAUUUCAACAGCUCGCAGUCAAG	0.117
GGUCACGUCUCAAUCAACUCUUUCCCCAGGGAAAACCCUGGCUAAUUCAACAGCUCGCAGUCAAG	0.191
GGUCACGUCUCAAUCAACUCAUCUUCCAGGGAAAACCCUGGUAAUCUCAACAGCUCGCAGUCAAG	-0.0443
GGUCACGUCUCAAUCAACUCAUUUUCAGGAGUUUGCUCCUGUAUAUUCAACAGCUCGCAGUCAAG	0.193
GGUCACGUCUCAAUCAACUCUACUUCAGGAGUUUCCUCCUGCAUACUCAACAGCUCGCAGUCAAG	0.0781
GGUCACGUCUCAAUCAACUCAGUCCCCAGGGAAAACCCUGGCAUUUUCAACAGCUCGCAGUCAAG	-0.0865
GGUCACGUCUCAAUCAACUCAACUUCCAGGGAAAGCCCUGGUUAACUCAACAGCUCGCAGUCAAG	0.101
GGUCACGUCUCAAUCAACUCUACAGAGGGGGGGAAAACCCCUUUACCCUCGAAAUCAACAGCUCGCAGUCAAG	-0.574
GGUCACGUCUCAAUCAACUCUAUCCCAGGAGUUUCCUCCUGCUUUUUCAACAGCUCGCAGUCAAG	0.204
GGUCACGUCUCAAUCAACUCUUCGUCAGGAGUUUCCUCCUGCAAAUUCAACAGCUCGCAGUCAAG	-0.0316
GGUCACGUCUCAAUCAACUCUAUCCCAGGAGUUUCCUCCUGCAUUCUCAACAGCUCGCAGUCAAG	0.0925
GGUCACGUCUCAAUCAACUCUCCAGAGGGGGGGAAAACCCCUUUGCCCUCAUUUUCAACAGCUCGCAGUCAAG	-0.378
GGUCACGUCUCAAUCAACUCAAUCUCAGGAGUUUCCUCCUGUAAACUCAACAGCUCGCAGUCAAG	0.196
GGUCACGUCUCAAUCAACUCAAUCCCAGGAGUUUACUCCUGCUAUCUCAACAGCUCGCAGUCAAG	0.0657
GGUCACGUCUCAAUCAACUCAUCCCCCAGGGAAAACCCUGGUAUUUUCAACAGCUCGCAGUCAAG	-0.0851
GGUCACGUCUCAAUCAACUCGUUUUCAGGAGUUUGCUCCUGCAUUUUCAACAGCUCGCAGUCAAG	-0.0256
GGUCACGUCUCAAUCAACUCUACUUCAGGAGUUUACUCCUGCAUAUUCAACAGCUCGCAGUCAAG	0.167
GGUCACGUCUCAAUCAACUCAAUCCCCAGGGAAAUCCCUGGCAUAGUCAACAGCUCGCAGUCAAG	0.206

Sequence	binding signal (log2 fold change)
GGUCACGUCUCAAUCAACUCAGUUUCCAGGGAAAGCCCUGGCAUAUUCAACAGCUCGCAGUCAAG	-0.074
GGUCACGUCUCAAUCAACUCUUUUUCAGGAGUUUUCUCCUGCUAUCUCAACAGCUCGCAGUCAAG	0.0163
GGUCACGUCUCAAUCAACUCAUCUCCAGGAGUUUCCUCCUGUAAAUUCAACAGCUCGCAGUCAAG	0.222
GGUCACGUCUCAAUCAACUCAUUCUCAGGAGUUUCCUCCUGUUUUUUCAACAGCUCGCAGUCAAG	-0.0786
GGUCACGUCUCAAUCAACUCAAAAGAGGGGGGGAAAACCCCUUUACCCUCGAAAUCAACAGCUCGCAGUCAAG	-0.33
GGUCACGUCUCAAUCAACUCAGUCUCCAGGGAAAGCCCUGGCAUUCUCAACAGCUCGCAGUCAAG	-0.133
GGUCACGUCUCAAUCAACUCAGUCCCCAGGGAAACCCCUGGCUUUUUCAACAGCUCGCAGUCAAG	0.00749
GGUCACGUCUCAAUCAACUCAGUCCCAGGAGUUUGCUCCUGCAUUUUCAACAGCUCGCAGUCAAG	-0.0532
GGUCACGUCUCAAUCAACUCUACUCCAGGAGUUUCCUCCUGCUAAUUCAACAGCUCGCAGUCAAG	-0.14
GGUCACGUCUCAAUCAACUCAUCAGAGGGGGGGAAAACCCCUUUGCCCUCAUAAUCAACAGCUCGCAGUCAAG	0.154
GGUCACGUCUCAAUCAACUCCCUCGAGGGGGGGAAAACCCCUUUACCCUCACUAUCAACAGCUCGCAGUCAAG	0.0703
GGUCACGUCUCAAUCAACUCAACUUCCAGGGAAACCCCUGGCAUACUCAACAGCUCGCAGUCAAG	-0.0077
GGUCACGUCUCAAUCAACUCAAGUCCAGGAGUUUCCUCCUGUUUAUUCAACAGCUCGCAGUCAAG	-0.0517
GGUCACGUCUCAAUCAACUCAACUCCAGGAGUUUCCUCCUGCAAAUUCAACAGCUCGCAGUCAAG	0.23
GGUCACGUCUCAAUCAACUCCUCGGAGGGGGGGAAAACCCCUUUACCCUCAACAUCAACAGCUCGCAGUCAAG	-0.359
GGUCACGUCUCAAUCAACUCAAUCGAGGGGGGGAAAACCCCUUUACCCUCAUACUCAACAGCUCGCAGUCAAG	-0.164
GGUCACGUCUCAAUCAACUCCCAAGAGGGGGGGAAAACCCCUUUACCCUCAAUAUCAACAGCUCGCAGUCAAG	-0.367
GGUCACGUCUCAAUCAACUCAUUAGAGGGGGGGAAAACCCCUUUACCCUCCACAUCAACAGCUCGCAGUCAAG	0.171
